# Results taken from paper PMC4336329 (PLoS ONE, 2015).
# The campaign covered roughly 310,000 compounds. About 14,000 (4.5%) showed an effect of 50% or more. The effect is printed as a negative number. Some of the results follow.
# Molecular target: human ether-à-go-go-related gene (hERG) potassium channel (human, UniProt Q12809)
# Test: primary screen, population patch clamp on CHO cells stably expressing hERG
# 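Note: peak tail current of the secondary pulse compared with the same well before compound.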
# human ether-à-go-go-related gene (hERG) potassium channel, sequence (Q12809 whole entry, looked up): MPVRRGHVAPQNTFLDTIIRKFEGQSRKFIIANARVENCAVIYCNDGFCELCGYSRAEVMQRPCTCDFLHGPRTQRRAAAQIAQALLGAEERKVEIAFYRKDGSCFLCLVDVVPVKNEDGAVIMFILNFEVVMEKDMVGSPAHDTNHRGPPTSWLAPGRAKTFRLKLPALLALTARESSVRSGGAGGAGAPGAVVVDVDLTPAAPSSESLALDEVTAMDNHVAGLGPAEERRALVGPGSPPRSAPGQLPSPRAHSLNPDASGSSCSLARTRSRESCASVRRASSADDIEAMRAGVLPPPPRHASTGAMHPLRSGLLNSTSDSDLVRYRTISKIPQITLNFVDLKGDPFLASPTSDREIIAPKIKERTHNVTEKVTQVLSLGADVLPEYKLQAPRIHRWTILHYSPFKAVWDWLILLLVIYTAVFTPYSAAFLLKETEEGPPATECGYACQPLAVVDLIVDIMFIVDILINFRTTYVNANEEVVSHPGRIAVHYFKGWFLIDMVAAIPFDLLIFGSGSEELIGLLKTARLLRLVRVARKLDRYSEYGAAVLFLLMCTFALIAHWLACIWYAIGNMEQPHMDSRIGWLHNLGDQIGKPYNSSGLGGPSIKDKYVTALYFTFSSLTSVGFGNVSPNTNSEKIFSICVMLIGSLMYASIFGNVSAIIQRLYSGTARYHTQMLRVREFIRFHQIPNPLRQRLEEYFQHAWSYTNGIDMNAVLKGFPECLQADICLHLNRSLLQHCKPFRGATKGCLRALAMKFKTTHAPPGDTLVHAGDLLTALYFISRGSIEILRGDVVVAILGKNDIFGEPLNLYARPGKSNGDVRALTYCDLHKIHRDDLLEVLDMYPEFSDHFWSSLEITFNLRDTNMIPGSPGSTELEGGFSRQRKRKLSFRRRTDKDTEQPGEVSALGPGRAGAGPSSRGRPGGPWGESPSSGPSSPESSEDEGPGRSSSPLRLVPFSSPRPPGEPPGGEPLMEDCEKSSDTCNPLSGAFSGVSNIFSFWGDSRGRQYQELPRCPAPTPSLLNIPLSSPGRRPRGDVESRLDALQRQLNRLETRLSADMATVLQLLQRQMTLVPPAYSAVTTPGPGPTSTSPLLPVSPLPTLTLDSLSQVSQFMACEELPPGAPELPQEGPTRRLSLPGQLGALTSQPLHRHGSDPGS
row,SMILES,"hERG current change (%, negative = inhibition) at 10uM [%]"
1,O=C(COc1cccc2cccnc12)N/N=C/c1ccccc1O,-5.32
2,C[C@H]1[C@H](OC(=O)CCC(=O)NCc2ccc(C(=O)O)cc2)O[C@@H]2O[C@@]3(C)CC[C@H]4[C@H](C)CC[C@@H]1C24OO3,-0.65
3,CCCCNC(=O)OCC(CC)NC(=O)OC(C)C (centres unmarked),9.29
4,COc1ccc(NC(=O)CSc2nnc(N)s2)cc1,19
5,CCN1CCN(C(=O)C23CCC(C)(C(=O)C2Br)C3(C)C)CC1 (centres unmarked),1.48
6,CN1CCN(S(=O)(=O)c2ccc(N(C)Cc3ccc(C(F)(F)F)cc3)c([N+](=O)[O-])c2)CC1,-5.45
7,Cc1cccc(NS(=O)(=O)c2cccc(C(=O)Nc3cccc(C(=O)O)c3)c2)c1,15.4
8,O=C(c1nc2ccccn2c1CN1CCCC(O)C1)N1CCN(C2CCCCC2)CC1 (centres unmarked),-13
9,COc1ccc(C2CC(=O)c3cnc(NC(=O)c4ccccc4OC)nc3C2)c(OC)c1 (centres unmarked),-27.3
10,C/C(=N\NC(=O)c1ccncc1)c1c(O)[nH]c(=O)[nH]c1=O,-1.22
11,CC(=O)N1c2ccc(S(=O)(=O)NCCC(=O)NCc3ccc(F)cc3)cc2CC1C (centres unmarked),14.1
12,N#C/C(=C\c1ccc(-c2ccccc2C(=O)O)o1)c1nc2ccccc2[nH]1,15.2
13,CCCN(C(=O)c1cccs1)c1c(N)n(Cc2ccccc2)c(=O)[nH]c1=O,-8.81
14,N#C/C(=C\c1ccc(OCc2ccc(Cl)cc2)cc1)C(=O)Nc1cccc(C(=O)O)c1,18.8
15,CC(C)(C)c1ccc(-c2nc(N)nc(N)n2)cc1,17.8
16,CCCCn1c(CN2C(=O)c3ccccc3C2=O)nc2ccccc2c1=O,0.598
17,CN(C(=O)CN1CCN(c2cnn(-c3ccccc3)c(=O)c2Cl)CC1)C1CCS(=O)(=O)C1 (centres unmarked),-6.77
18,Cc1noc(C)c1CSCC(=O)OCC(=O)N1CC(=O)Nc2ccccc21,-72.4
19,CCOc1ccccc1CN1CCN(Cc2cccc3c2OCO3)CC1CCO (centres unmarked),-62.6
20,O=C(Nc1ccc(OCC(=O)N2CCOCC2)cc1)c1cccc(Cl)c1,-3.45
21,Cc1ccnc(N2C(=O)CSC2c2ccc(Cl)cc2)c1 (centres unmarked),-12.3
22,COc1ccc(CCNC(=O)CSc2nc3[nH]ncc3c(=O)n2-c2ccc(Cl)cc2Cl)cc1OC,16.2

row,SMILES,"hERG current change (%, negative = inhibition) at 10uM [%]"
1,Cc1cc(C)c(C)c(/C=C(/C#N)C(N)=S)c1C,-4.15
2,Cc1ccc(S(=O)(=O)Oc2ccccc2/C=C2\SC(=O)NC2=O)cc1,15.8
3,COc1ccc(C2C(C(=O)N3CCN(c4ccc(OC)cc4)CC3)c3ccccc3C(=O)N2C)cc1 (centres unmarked),-23.3
4,CCN(CCCNC(=O)C1CCCN(S(=O)(=O)CC)C1)c1cccc(C)c1 (centres unmarked),-11.4
5,CN(C)/C=C1\N=C(c2cccs2)OC1=O,5.45
6,CCOC(=O)c1c(N)sc(C(=O)OCCOC)c1C,25.1
7,CCCCN(C)CCCNC(=O)C1CC(=O)N(Cc2ccc(OC)cc2)C1 (centres unmarked),-1.67
8,CC(C)(C)c1cc(=O)n2c(C#N)c(C#N)nc2[nH]1,10.8
9,CCOc1ccc(NS(=O)(=O)c2ccc3[nH]c(=O)cc(C(=O)O)c3c2)cc1,-2.51
10,CCOC(=O)c1ccc(NC(=O)Cn2nc(C)c3ccccc3c2=O)cc1,15.3
11,COc1cc(SC)ccc1C(=O)N1CCN(Cc2ccccc2)CC1,-62.7
12,O=C(NCc1ccccn1)c1n[nH]c2ccccc12,17.9
13,O=C(NCc1ccccc1)C12CN(Cc3ccccc3)CC1C(c1ccc([N+](=O)[O-])cc1)=NO2 (centres unmarked),-67.1
14,COc1cccc(NC(=O)CN2C(=O)CSc3ccc(S(=O)(=O)N4CCC(C)CC4)cc32)c1,17
15,O=C(CS(=O)(=O)c1cn(CC(=O)N2CCCC2)c2ccccc12)Nc1ccccc1,3.65
16,O=C(Nc1nc(-c2ccccc2)cs1)c1ccccc1NS(=O)(=O)c1ccc(F)cc1,10
17,CSc1cccc(NS(=O)(=O)c2ccc(C(C)=O)cc2)c1,-27.2
18,COc1cc(Br)cc(CN2CCN(C)CC2)c1O,-19.9
19,COc1cc(NC(=O)CCC(=O)OCCCC(F)(F)C(F)(F)F)nc(OC)n1,4.37
20,CCN(C(=O)CN1C(=S)NC(C)(C)CC1C)c1ccc(C)c(C)c1 (centres unmarked),18
21,COC(=O)c1ccc(Cn2cnc3ccccc3c2=O)cc1,-38.6
22,COc1ccc(CC(=O)Nc2nnc(C(C)(C)C)s2)cc1OC,2.11

row,SMILES,"hERG current change (%, negative = inhibition) at 10uM [%]"
1,Cc1nn(CC(=O)NCc2cccc(F)c2)c(=O)c2cccn12,8.99
2,O=C(Nc1nc(-c2ccccn2)cs1)C1CC(=O)N(c2ccc3c(c2)OCCO3)C1 (centres unmarked),-8.37
3,COc1cccc(CCNCc2cccc(C(F)(F)F)c2)c1.O=C(O)C(=O)O,-3.46
4,Cc1c(NC(=O)CSc2ncccn2)c(=O)n(-c2ccccc2)n1C,27.8
5,COc1cccc(NC(=O)N2CCCCCC2)c1,16
6,CN(C)S(=O)(=O)c1ccc(NS(=O)(=O)/C=C/c2ccccc2)cc1,-9.17
7,CCOc1cccc(=O)c2c(C)n(C)c(C)c12,-4.1
8,COc1ccc(COc2ccc(C3C(S(=O)(=O)c4ccccc4)CON3C)cc2OC)cc1 (centres unmarked),-2.6
9,CCOCC(=O)Nc1cc(C(=O)OC)ccc1C(=O)OC,-2.43
10,CCCCC(=O)Nc1ccc(N2CCN(C(=O)c3ccco3)CC2)cc1,-18.1
11,O=C(O)CSc1nnc(Cn2nnc3ccccc32)n1CCc1ccccc1,16.9
12,O=C/C(=C\Nc1ccc(Cl)cn1)c1nc2cc(Cl)ccc2o1,16
13,CCn1c(SCc2ccc(C)cc2)nnc1-c1cnccn1,-18.8
14,CC1CCCC(C)N1C(=O)CN1C(=O)C(C)(C)Oc2ccc(C(=O)NC3CCCC3)cc21 (centres unmarked),-36.1
15,COCCN(C(=O)COC(=O)CCC(=O)c1cccs1)c1c(N)n(Cc2ccccc2)c(=O)[nH]c1=O,15.4
16,OC(CNCc1ccccc1F)(c1ccc(F)cc1)c1ccc(F)cc1,-26.7
17,CCOC(=O)c1c(C)n(CC)c2ccc(OC(=O)c3ccc([N+](=O)[O-])cc3)cc12,6.3
18,Cc1cccc(N(CC(=O)N2CCCC2)S(=O)(=O)c2ccccc2)c1C,-11.9
19,CC(C)NC(=O)CCCC(=O)NC(C)C,19.9
20,c1ccc(OCCOc2ncnc3ccccc23)cc1,7.39
21,COc1cccc(CNC(=O)CSC(=S)N2CCCC2)c1,2.79
22,CCCCNC(=O)COC(=O)c1cc(S(=O)(=O)N2CCCCCC2)ccc1OC,-39.5

row,SMILES,"hERG current change (%, negative = inhibition) at 10uM [%]"
1,O=C(CN(Cc1ccccc1Cl)C(=O)c1csnn1)NCCc1ccccc1,1.49
2,Cc1cc(=O)[nH]c(N/N=C/c2sccc2C)n1,-1.84
3,O=C(OCN1C(=O)c2ccccc2C1=O)c1ccc(Cl)nc1,-0.701
4,O=C(CSc1nnc(CCCN2C(=O)c3cccc4cccc(c34)C2=O)n1-c1ccccc1)NCCCN1CCOCC1,-34.9
5,Cc1ccc(S(=O)(=O)N2CCC(C(=O)OCC(=O)N(C)CC(=O)Nc3ccc(F)cc3)CC2)cc1C,-41.8
6,COc1ccccc1N1C(=O)S/C(=C\c2ccc(C)s2)C1=O,22.2
7,CC(C)CCNC(=O)C(=O)Nc1ccccc1,3.7
8,COCCN1C(=O)C(=O)/C(=C(/O)c2ccc(S(=O)(=O)N3CCOCC3)cc2)C1c1ccc(OC)c(OC)c1 (centres unmarked),8.15
9,COc1ccc2c(C)c(CC(=O)N3C[C@H]4C[C@@H](C3)c3cccc(=O)n3C4)c(=O)oc2c1OC,-1.03
10,S=c1[nH]cc(-c2ccccc2)[nH]1,15.8
11,COc1ccc(-c2nc(C#N)c(NCc3ccco3)o2)cc1,11.6
12,Cn1cccc1/C=C1/SC(=O)N(CC(=O)N2CCCC2)C1=O,16.1
13,CC(=O)CSc1nnc(-c2ccco2)n1-c1ccccc1,-11.7
14,CCOc1ccc2nc3c(cc2c1)CN(CCCO)C(=NCCOC)S3,1.71
15,CN(C1CCCCC1)S(=O)(=O)c1ccc(C(=O)Nc2sc3c(c2C(N)=O)CC(C)(C)NC3(C)C)cc1,15.6
16,COc1cc(C)ccc1OCCOc1cc(C)ccc1Cl,8.79
17,Cc1ccccc1NC(=S)NC(NC(=O)N(C)C)C(Cl)(Cl)Cl (centres unmarked),8.39
18,CCOc1ccc(Oc2ccc(C(F)(F)F)cc2NC(=O)C2=COCCO2)cc1,13.6
19,COCCNC(=O)Cc1c(C)c2cc3c(cc2oc1=O)OC(C)(C)CC3,12.3
20,CC(OC(=O)c1cccc(-n2cnnn2)c1)C(=O)NCc1ccccc1 (centres unmarked),0.976
